Reference: patent US10759791B2, “Mammalian and bacterial nitric oxide synthase inhibitors” (Northwestern University, priority 2014, dated 2020)

Molecular target: murine macrophage iNOS (Mus musculus (Mouse), UniProt P29477)
Experiment: Hemoglobin capture assay, Ki (Example 159)
Type: biochemical

Structure (SMILES) | Ki
Cc1cc(N)nc(CCc2cncc(C3CCN(C)CC3)c2)c1 [Compound 14h, 4-Methyl-6-(2-(5-(1-methylpiperidin-4-yl)pyridin-3-yl)ethyl)pyridin-2-amine] | 11.8 µM
COCCN(C)c1cncc(CCc2cc(C)cc(N)n2)c1 [Compound 14d, 6-(2-(5-((2-Methoxyethyl)(methyl)amino)pyridin-3-yl)ethyl)-4-methylpyridin-2-amine] | 18.2 µM
Cc1cc(N)nc(CCc2cncc(CCCN(C)C)c2)c1 [Compound 14k, 6-(2-(5-(3-(Dimethylamino)propyl)pyridin-3-yl)ethyl)-4-methylpyridin-2-amine] | 1.49 µM
COCCCNc1cncc(CCc2cc(C)cc(N)n2)c1 [Compound 14e, 6-(2-(5-(3-Methoxypropylamino)pyridin-3-yl)ethyl)-4-methylpyridin-2-amine] | 7.05 µM
Cc1cc(N)nc(CCc2cncc(N3CCN(C)CC3)c2)c1 [Compound 14g, 4-Methyl-6-(2-(5-(4-methylpiperazin-1-yl)pyridin-3-yl)ethyl)pyridin-2-amine] | 14.2 µM
Cc1cc(N)nc(CCc2cncc(N3CCOCC3)c2)c1 [Compound 14c, 4-Methyl-6-(2-(5-morpholinopyridin-3-yl)ethyl)pyridin-2-amine] | 11.6 µM
